Measurements as given in PubChem BioAssay AID1745853 (National Center for Advancing Translational Sciences (NCATS), 2022).
Some of the results follow. The main result of the screen is listed elsewhere. These columns were measured beside it and carry no call.

Key:
Test in all cases: Primary Screen for Target Class Profiling of Small Molecule Inhibitors of Methyltransferases
[1] = molecular target: Glycine N-methyltransferase (Homo sapiens) (UniProt Q14749); settings: purified enzyme, MTase-Glo SAH luminescence; measured here: GNMT inhibition; at 40 µM; stronger effect = lower value
Method in brief: (§1)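 Each enzyme was assayed with SAM and its substrate. SAH formation detected by MTase-Glo luminescence; single-point 40 uM screen[…].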

[2] = molecular target: Guanidinoacetate N-methyltransferase (Homo sapiens) (UniProt Q14353); settings: purified enzyme, MTase-Glo SAH luminescence; measured here: GAMT inhibition; at 40 µM; stronger effect = lower value
Method in brief: as §1

[3] = molecular target: Histamine N-methyltransferase (Homo sapiens) (UniProt P50135); settings: purified enzyme, MTase-Glo SAH luminescence; measured here: HNMT inhibition; at 40 µM; stronger effect = lower value
Method in brief: as §1

[4] = molecular target: Nicotinamide N-methyltransferase (Homo sapiens) (UniProt P40261); settings: purified enzyme, MTase-Glo SAH luminescence; measured here: NNMT inhibition; at 40 µM; stronger effect = lower value
Method in brief: as §1

[5] = molecular target: Phenylethanolamine N-methyltransferase (Homo sapiens) (UniProt P11086); settings: purified enzyme, MTase-Glo SAH luminescence; measured here: PNMT inhibition; at 40 µM; stronger effect = lower value
Method in brief: as §1
On the % scale 0 is the no-effect control and ±100 the full control effect.

Compound: COC1C(O)C(C)OC(OC2C(CO)O[C@@H](O[C@@H]3CC4CCC5C(CC[C@]6(C)[C@@H](C7=CC(=O)OC7)CC[C@]56O)[C@@]4(C)[C@H](OC(C)=O)C3)C(O)C2O)C1O (stereo partly drawn)
- activity change, negative = inhibition [1]: 2.53%
- activity change, negative = inhibition [2]: 3.17%
- activity change, negative = inhibition [3]: 9.33%
- activity change, negative = inhibition [4]: -8.49%
- activity change, negative = inhibition [5]: 5.99%

Compound: Cc1ccccc1C1c2cccn2-c2ccccc2CN1C(=O)Nc1cccc(Br)c1 (stereo not drawn)
- activity change, negative = inhibition [1]: 15.7%
- activity change, negative = inhibition [2]: 1.18%
- activity change, negative = inhibition [3]: 8.26%
- activity change, negative = inhibition [4]: 10.2%
- activity change, negative = inhibition [5]: 9.62%

Compound: COc1ccc(NC(=O)N2Cc3ccccc3-n3cccc3C2c2ccc(C)cc2)cc1 (stereo not drawn)
- activity change, negative = inhibition [1]: 1.79%
- activity change, negative = inhibition [2]: 1.98%
- activity change, negative = inhibition [3]: 1.99%
- activity change, negative = inhibition [4]: -0.771%
- activity change, negative = inhibition [5]: -2.17%

Compound: CCc1ccc(C2c3cccn3-c3ccccc3CN2C(=O)Nc2ccc3c(c2)OCCO3)cc1 (stereo not drawn)
- activity change, negative = inhibition [1]: 13.5%
- activity change, negative = inhibition [2]: 3.89%
- activity change, negative = inhibition [3]: 5.25%
- activity change, negative = inhibition [4]: 7.33%
- activity change, negative = inhibition [5]: 10.3%

Compound: NCCc1c[nH]c2ccc(O)cc12
- activity change, negative = inhibition [1]: 1.15%
- activity change, negative = inhibition [2]: 9.29%
- activity change, negative = inhibition [3]: -41%
- activity change, negative = inhibition [4]: 0.738%
- activity change, negative = inhibition [5]: 10.5%

Compound: COC(=O)C1=COC(C)C2CN3CCC4(C(=O)Nc5ccccc54)C3CC12 (stereo not drawn)
- activity change, negative = inhibition [1]: -4.22%
- activity change, negative = inhibition [2]: -2.94%
- activity change, negative = inhibition [3]: 1.77%
- activity change, negative = inhibition [4]: -14.5%
- activity change, negative = inhibition [5]: -3.73%

Compound: C=C[C@H]1CN2CC[C@H]1C[C@@H]2CNC(=O)CC(C)(C)C
- activity change, negative = inhibition [1]: -5.86%
- activity change, negative = inhibition [2]: -6.79%
- activity change, negative = inhibition [3]: -2.02%
- activity change, negative = inhibition [4]: -5.9%
- activity change, negative = inhibition [5]: -5.12%

Compound: Cc1ccc(CN2C[C@@H]3C(=O)N(C)C(=O)[C@@H]3C2)o1
- activity change, negative = inhibition [1]: -8.67%
- activity change, negative = inhibition [2]: -10.3%
- activity change, negative = inhibition [3]: -4.84%
- activity change, negative = inhibition [4]: -5.18%
- activity change, negative = inhibition [5]: -7.39%

Compound: COC(=O)c1ccccc1NC(=O)N1Cc2ccccc2-n2cccc2C1c1ccc(C)cc1 (stereo not drawn)
- activity change, negative = inhibition [1]: 5.41%
- activity change, negative = inhibition [2]: 3.07%
- activity change, negative = inhibition [3]: -6.07%
- activity change, negative = inhibition [4]: -3.82%
- activity change, negative = inhibition [5]: -0.716%

Compound: C[C@@H]1CN(Cc2ccc(F)cc2)CCN1C(=O)COc1ccc(Cl)cc1NC(N)=O
- activity change, negative = inhibition [1]: 4.67%
- activity change, negative = inhibition [2]: 4.69%
- activity change, negative = inhibition [3]: 0.291%
- activity change, negative = inhibition [4]: -13.5%
- activity change, negative = inhibition [5]: -23.1%

Compound: Cc1ccccc1C1c2cccn2-c2ccccc2CN1C(=O)Nc1ccccc1Br (stereo not drawn)
- activity change, negative = inhibition [1]: 2.25%
- activity change, negative = inhibition [2]: 4.14%
- activity change, negative = inhibition [3]: -1.31%
- activity change, negative = inhibition [4]: -2.9%
- activity change, negative = inhibition [5]: -1.6%

Compound: CCc1ccc(C2c3cccn3-c3ccccc3CN2C(=O)Nc2cccc(SC)c2)cc1 (stereo not drawn)
- activity change, negative = inhibition [1]: 7.71%
- activity change, negative = inhibition [2]: 0%
- activity change, negative = inhibition [3]: 1.53%
- activity change, negative = inhibition [4]: 1.98%
- activity change, negative = inhibition [5]: 5.28%

Compound: O=C(NCCc1ccccc1)N1Cc2ccccc2-n2cccc2C1c1cccs1 (stereo not drawn)
- activity change, negative = inhibition [1]: 6.61%
- activity change, negative = inhibition [2]: 0%
- activity change, negative = inhibition [3]: -13.9%
- activity change, negative = inhibition [4]: -6.66%
- activity change, negative = inhibition [5]: 1.07%

Compound: CCC1c2cccn2-c2ccccc2CN1C(=O)Nc1cccc(Cl)c1C (stereo not drawn)
- activity change, negative = inhibition [1]: 1.01%
- activity change, negative = inhibition [2]: 0%
- activity change, negative = inhibition [3]: 2.4%
- activity change, negative = inhibition [4]: 10.9%
- activity change, negative = inhibition [5]: 8.07%

Compound: C[C@@H]1CC[C@H]2[C@@H](C)C(=O)O[C@@H]3O[C@@]4(C)CC[C@@H]1[C@]32OO4
- activity change, negative = inhibition [2]: -5.34%
- activity change, negative = inhibition [4]: -17.2%
- activity change, negative = inhibition [5]: -13.4%

Compound: OC1(c2ccc(Cl)cc2)c2ccccc2C2=NCCN21 (stereo not drawn)
- activity change, negative = inhibition [1]: -0.803%
- activity change, negative = inhibition [2]: 8.52%
- activity change, negative = inhibition [3]: -8.77%
- activity change, negative = inhibition [4]: -13.2%
- activity change, negative = inhibition [5]: 4.01%

Compound: COc1c(C(C)C)cc2c(c1O)[C@@]1(C(=O)O)CCCC(C)(C)C1CC2 (stereo partly drawn)
- activity change, negative = inhibition [1]: -0.021%
- activity change, negative = inhibition [2]: -3.53%
- activity change, negative = inhibition [3]: -5.46%
- activity change, negative = inhibition [4]: -20.6%
- activity change, negative = inhibition [5]: -3.38%
